Data published in article PMC10668032.
The list shows a part of the results. At the low end of the ranking the order means little.

Target: SIX1 homeodomain (reference allele) (UniProt Q15475)
Assay: universal protein binding microarray
Conditions: Universal all-10-mer PBM (8x60K, AMADID 030236), 300 nM GST-tagged protein, Alexa Fluor 488 anti-GST; buffer, salt, pH and temperature not stated; high values mean tight binding; most listed sequences are background and not binding sites; double strand, one strand shown

Row | Sequence | binding signal
1 | ATACACTA | 0.297 E-score
2 | AACGACGA | -0.0982 E-score
3 | CGCAAGTA | 0.0753 E-score
4 | ATTCTCGG | -0.0499 E-score
5 | AGGCTACT | -0.0855 E-score
6 | ATATTATG | 0.299 E-score
7 | GTACCCAA | -0.0233 E-score
8 | CGATTTAG | -0.0787 E-score
9 | GACGCCAC | -0.0329 E-score
10 | CTCGCCAG | -0.0747 E-score
11 | AACGGCGT | -0.163 E-score
12 | ACAAACGC | -0.079 E-score
13 | ATGACGCA | 0.0615 E-score
14 | CAGCCTCA | 0.055 E-score
15 | ATGTATAG | 0.217 E-score
16 | ACTTCATG | -0.0719 E-score
17 | GAATCGTA | 0.0549 E-score
18 | ACGACGTC | -0.0461 E-score
19 | CCACTAGA | -0.0637 E-score
20 | ATCTTGTA | 0.184 E-score
21 | CTAAAAAA | -0.0435 E-score
22 | GTGGCGCA | -0.18 E-score
23 | CCGGATTA | 0.351 E-score
24 | AATACTGA | 0.0647 E-score
25 | CTTCAGAA | -0.158 E-score

Row | Sequence | binding signal
26 | ACCATCTG | 0.144 E-score
27 | ACCATAAC | -0.0318 E-score
28 | GCGTGCCC | -0.101 E-score
29 | CGGACTAG | -0.126 E-score
30 | AACGGTGG | -0.0756 E-score
31 | TATCGAGA | 0.293 E-score
32 | GTGGGTAA | -0.0776 E-score
33 | TATTGTGA | 0.19 E-score
34 | ACCGAGAG | 0.0847 E-score
35 | TCGGTACA | 0.0942 E-score
36 | CCACGACC | -0.17 E-score
37 | TAGGTAGA | 0.0282 E-score
38 | ATCACCCA | 0.308 E-score
39 | ACTACCGC | -0.0862 E-score
40 | CCACGCGA | 0.0314 E-score
41 | CGGCGCAG | -0.119 E-score
42 | GGCGATAA | 0.112 E-score
43 | GGCACTAA | -0.152 E-score
44 | GAACCTGC | -0.0489 E-score
45 | ATAGTAAT | 0.138 E-score
46 | CCCGTTCC | -0.124 E-score
47 | ACCATGTC | 0.101 E-score
48 | CCCTCTAC | 0.059 E-score
49 | TACCTGCA | -0.0766 E-score
50 | AAAGCCTG | -0.0921 E-score

Row | Sequence | binding signal
51 | GACAACCA | -0.158 E-score
52 | GAGTTACC | -0.0969 E-score
53 | GTCCAATA | 0.105 E-score
54 | AGGGCGTA | -0.0135 E-score
55 | AACGGGTC | -0.272 E-score
56 | ACATTACG | -0.218 E-score
57 | AACCCAAC | 0.0602 E-score
58 | GACGCTAA | -0.191 E-score
59 | CCCGTTAA | -0.146 E-score
60 | CGTTGGCC | -0.17 E-score
61 | AGCAAGCT | -0.278 E-score
62 | ATAACACA | -0.00834 E-score
63 | CAGTATCC | 0.39 E-score
64 | AGCAGAAC | 0.0537 E-score
65 | AGTCGAGG | -0.0141 E-score
66 | AGGAGCAA | -0.176 E-score
67 | AGCCGGGG | 0.0708 E-score
68 | CTATCCTC | 0.282 E-score
69 | GACGGTTA | -0.163 E-score
70 | CCGAGGGC | -0.182 E-score
71 | AAGGATAG | 0.195 E-score
72 | ACCATCAG | -0.0452 E-score
73 | AGCCTGTC | -0.079 E-score
74 | CGCTCATA | -0.0628 E-score
75 | AAGTAGAA | -0.0618 E-score

Row | Sequence | binding signal
76 | GAACAGCC | -0.164 E-score
77 | GAGAGATA | 0.323 E-score
78 | CAAGTTGA | 0.00464 E-score
79 | ATAGGTGG | 0.0806 E-score
80 | CCGCTCTA | -0.112 E-score
81 | CGAGACGC | 0.167 E-score
82 | AAATAATT | -0.0636 E-score
83 | CTTTTCCC | -0.35 E-score
84 | ACACCTTG | 0.186 E-score
85 | AAACCTGC | -0.0926 E-score
86 | CCAGCGTC | 0.133 E-score
87 | ATAATGAA | 0.0856 E-score
88 | CAGCACGG | -0.137 E-score
89 | TGTATCAA | 0.41 E-score
90 | ATCGGGTG | 0.32 E-score
91 | CCTCCGAA | -0.0218 E-score
92 | CGACACCA | 0.416 E-score
93 | AGTTTTCC | -0.0644 E-score
94 | CATTGTAC | -0.047 E-score
95 | AGGTCCCG | -0.152 E-score
96 | AGGCTAAC | -0.0677 E-score
97 | AATAGCGT | -0.111 E-score
98 | ACAAATTA | -0.0981 E-score
99 | AAAAGTAA | -0.223 E-score
100 | CTCTGGTC | -0.00895 E-score

Row | Sequence | binding signal
101 | AGTGCATA | -0.0255 E-score
102 | ACGACTTC | -0.313 E-score
103 | CATTTTGG | -0.146 E-score
104 | CCCGTATA | 0.29 E-score
105 | AATCTACT | -0.0322 E-score
106 | GTTATCTA | 0.0655 E-score
107 | CGAGGTCA | -0.15 E-score
108 | CATTCCCC | -0.00963 E-score
109 | CATTTTCC | -0.145 E-score
110 | CAATGTAA | -0.0788 E-score
111 | CTAAAAGA | 0.0522 E-score
112 | TAAACGCA | -0.0325 E-score
113 | GCAGACGA | 0.0652 E-score
114 | CAAAAATC | -0.234 E-score
115 | CACCTAAC | -0.0096 E-score
116 | CAGACGGG | -0.0188 E-score
117 | AAGAATTC | -0.223 E-score
118 | ACGAGCAA | -0.334 E-score
119 | CTGGCTGA | 0.0779 E-score
120 | ACAGCCGC | -0.111 E-score
121 | ACGTATGC | 0.0454 E-score
122 | TAAGTATA | 0.218 E-score
123 | GCAAAAGA | -0.169 E-score
124 | CGCCCGCC | -0.00312 E-score
125 | CGTATTCA | 0.265 E-score

Row | Sequence | binding signal
126 | CATCCAGC | 0.00619 E-score
127 | ACGGGAAG | -0.095 E-score
128 | GACATGTC | -0.256 E-score
129 | ATATGGCA | 0.204 E-score
130 | AAGCTGCC | -0.118 E-score
131 | AGGACGAA | -0.126 E-score
132 | GAGAGACA | 0.0879 E-score
133 | CGACTAAA | 0.0129 E-score
134 | GGATAGAC | 0.151 E-score
135 | AGCGACTA | -0.202 E-score
136 | AATTAGGT | -0.0262 E-score
137 | CTTACGCC | -0.0992 E-score
138 | CACAACCA | -0.113 E-score
139 | CCCAATCG | 0.0344 E-score
140 | AACTCCAG | -0.0574 E-score
141 | GCCCTGTA | -0.0643 E-score
142 | ATAGTTTC | 0.0852 E-score
143 | CTGTTAAG | -0.288 E-score
144 | CCCCTGAA | 0.0737 E-score
145 | CTTGGATC | 0.295 E-score
146 | AATGCGGA | -0.00414 E-score
147 | GCTTTACA | -0.154 E-score
148 | CACGTCTC | 0.0977 E-score
149 | CTTCGTAA | -0.249 E-score
150 | AATTCTGA | -0.0645 E-score

Row | Sequence | binding signal
151 | CCTACTCA | 0.161 E-score
152 | GAGAGCCA | -0.0782 E-score
153 | AAGCGTAC | -0.124 E-score
154 | AATAACCG | -0.192 E-score
155 | ATGTTTTG | -0.132 E-score
156 | AACTTGTC | -0.288 E-score
157 | CTCTCTAA | -0.163 E-score
158 | GGATGTAA | 0.134 E-score
159 | AGGGCGTC | 0.0124 E-score
160 | CACATGCC | -0.108 E-score
161 | CAGCGATG | 0.0336 E-score
162 | AATAGTGT | 0.167 E-score
163 | ACTCTAGG | -0.14 E-score
164 | AGCAAACT | -0.132 E-score
165 | AACACGGA | 0.136 E-score
166 | GATTTCTA | 0.0508 E-score
167 | CATGCTCA | -0.0777 E-score
168 | CGACGGGC | -0.12 E-score
169 | CAGCATTC | -0.0843 E-score
170 | CGACTACA | -0.0719 E-score
171 | ATCTCGAC | 0.0336 E-score
172 | CCGGACCG | -0.0242 E-score
